Laboratory results reported in publication PMC6919601, “Identification of Plasmodium dipeptidyl aminopeptidase allosteric inhibitors by high throughput screening” (PLoS ONE, 2019).
Screen size: about 110,000 compounds; about 230 (0.21%) showed an effect of 50% or more. The list shows a part of the results.

Target: DPAP1 (Plasmodium falciparum, UniProt Q8IIJ9)
Assay: primary screen, percent inhibition; read by cleavage of a fluorogenic dipeptide substrate; higher = more effect of the substance
Design: species or system P. falciparum D10 trophozoite lysates; single well
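Further: 30 min substrate incubation versus DMSO and 10 µM JCP410 controls.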

Chain of DPAP1 (Q8IIJ9 whole entry, looked up): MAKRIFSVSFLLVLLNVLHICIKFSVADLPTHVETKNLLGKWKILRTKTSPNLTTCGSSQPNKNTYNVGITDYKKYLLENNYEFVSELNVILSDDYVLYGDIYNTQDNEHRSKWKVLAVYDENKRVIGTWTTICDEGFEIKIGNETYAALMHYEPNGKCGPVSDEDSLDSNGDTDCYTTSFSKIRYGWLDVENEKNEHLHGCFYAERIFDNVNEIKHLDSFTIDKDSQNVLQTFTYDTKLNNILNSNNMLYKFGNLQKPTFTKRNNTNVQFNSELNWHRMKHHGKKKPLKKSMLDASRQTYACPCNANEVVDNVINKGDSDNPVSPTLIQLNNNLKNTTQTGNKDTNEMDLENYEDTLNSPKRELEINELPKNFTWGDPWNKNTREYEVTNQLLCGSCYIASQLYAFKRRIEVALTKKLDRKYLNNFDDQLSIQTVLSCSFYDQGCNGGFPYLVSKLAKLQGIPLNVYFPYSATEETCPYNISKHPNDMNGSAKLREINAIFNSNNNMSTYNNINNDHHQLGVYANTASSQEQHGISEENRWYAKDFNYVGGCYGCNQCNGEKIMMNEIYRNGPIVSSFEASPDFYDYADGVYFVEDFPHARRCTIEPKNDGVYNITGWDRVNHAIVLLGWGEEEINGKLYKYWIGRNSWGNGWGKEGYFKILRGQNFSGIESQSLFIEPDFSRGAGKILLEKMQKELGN

Structure (SMILES) | % Inhibition @ 10 uM [%]
CC1=CC(C)=Nc2cc(C)ccc2N1 | 2.13
Nc1nc(S)ncc1S(=O)(=O)c1ccccc1 | 49.3
COc1ccc(-c2nc3c(c(SC)n2)Cc2cccc(OC)c2O3)cc1 | -1.21
COc1ccc(Br)cc1/C=c1\sc2nc(=O)c(-c3ccccc3)nn2c1=O | -1.75
COc1ccccc1/C=C/C=C1\N=C(c2cc(Cl)ccc2OC)OC1=O | -0.48
Cc1nc(O)nc(O)c1S(=O)(=O)N1CCCCC1C (stereo not shown) | 2.07
C=CCN1C(=O)N/C(=C/c2ccccc2F)C1=O | -1.24
CC1=C(CCN2CCN(c3ccccc3F)CC2)C(C)(C)CCC1 | 0.0792
Cc1ccc(NC(=O)CSc2nccn2C)cc1C | 1.8
NCCc1c[nH]c2c(Cl)cc(Cl)cc12 | -5.46
O=C(O)C1CCCN1C(=O)c1cccnc1 (stereo not shown) | -2.91
CC(C)c1ccc(C(C)(C)C)cc1S(N)(=O)=O | -3.16
CCCCCCN1C=CC(=C2C(=O)c3ccccc3C2=O)C=C1 | 4.16
COC(=O)c1nnn(-c2nonc2N)c1CSC1=NCCS1 | 10.6
NS(=O)(=O)c1ccc(CNC(=O)c2cc(=O)c3ccccc3o2)cc1 | 3.51
Cc1cccc(CN2CCN(c3ccccc3)CC2)c1 | -1.92
Brc1ccc(CSc2c[nH]c3ccccc23)cc1 | 12.1
CC(=O)NS(=O)(=O)c1ccc(NC(=O)COc2ccc(Cl)cc2C)cc1 | -3.33
Fc1ccc(N2CCN(Cc3c4ccccc4c(Cl)c4ccccc34)CC2)cc1 | -1.64
N#C/C(=C\c1c(Oc2ccccc2Cl)nc2ccccn2c1=O)C(=O)NCC1CCCO1 (stereo not shown) | 4.99
O=C(NCc1ccccc1Cl)c1cc(-c2ccncc2)nc2ccccc12 | -4.06
Cc1cc(C)n(CCc2nc3c4ccccc4nc(N4CCN(C(=O)c5ccco5)CC4)n3n2)n1 | 0.981
CCc1ccc(C2CC(=O)NC3=C2C(=O)CCC3)cc1 (stereo not shown) | 0.205
C=CCOn1c(C)c(C(C)=O)c2c3no[n+]([O-])c3ccc21 | -0.988
CCN(CC)C(=O)Cn1nc(-c2ccc(Cl)cc2)c2ccccc2c1=O | -3.96
CN1CCCc2c1nc1c(c2N)CCCC1 | -2.91

Structure (SMILES) | % Inhibition @ 10 uM [%]
Cc1cc(-c2ncccc2O)cc(C)c1O | 3.98
Cc1ccc2nc3c(cc(S(=O)(=O)c4ccc(Cl)cc4)c(=N)n3Cc3ccco3)c(=O)n2c1 | 13.6
CC1=C(C(=O)Nc2ccc(C)cc2)C(c2ccc(N(C)C)cc2)NC(=O)N1 (stereo not shown) | -1.54
CCOC(=O)N1CCC(N(CC)CCN(C)C)CC1 | -2.95
O=S1(=O)C=C(Oc2ccc3ccccc3c2)c2ccccc21 | -6.42
Fc1ccc(N2CCN(C/C(Cl)=C/c3ccccc3)CC2)cc1 | 1.88
Cc1nn(C(C)C(=O)NCCc2ccc(Cl)cc2)c(=O)c2nn(-c3ccccc3)c(C)c12 (stereo not shown) | -1.94
Cc1cc(C(F)(F)F)c2c(N)c(C(=O)c3ccc(Br)cc3)sc2n1 | 0.605
Cc1cc(C)n2nc(CCC(=O)NCc3ccc(Cl)cc3)nc2n1 | -6.62
COc1ccc(C2=NS(=O)(=O)N(C)C(C(=O)NCc3cccnc3)=C2)cc1 | 2.32
N=C1C[N+](CC23CC4CC(CC(C4)C2)C3)=NO1 | 0.146
CCn1c(SCC(=O)O)nnc1-c1c[nH]c2ccccc12 | -2.05
COc1ccc2c(c1)CC(N1CCN(C)CC1)c1cc(OC)ccc1S2 (stereo not shown) | 2.19
Cc1nc2ncnn2c(C)c1CCC(=O)N1CCC(Cc2ccccc2)CC1 | -0.685
CCN1CCN(Cc2csc(C)c2-c2ccc(C)cc2)CC1 | -0.751
CC(=O)/C=C/c1ccc(-c2cc(Cl)ccc2Cl)o1 | -1.5
Cc1ccc(/C=C(\C#N)c2nc(-c3ccc(C)cc3C)cs2)cc1 | 0.98
COc1ccc2ccccc2c1C1NC(SCc2ccccc2C#N)=NC(C)=C1C(C)=O (stereo not shown) | 3.06
CC1(C)CC(c2csc(N)n2)CCO1 (stereo not shown) | 3.01
COc1ccc(-c2cc(C(F)(F)F)n3ncc(C(=O)NC(C)(C)C)c3n2)cc1OC | -13.4
COc1cc(CNC2CCCC2)cc(OC)c1 | 2.65
Cc1nnc(NC(=O)CNC(=O)Cn2c(C)cc3ccccc3c2=O)s1 | 5.85
COc1ccc(-c2nnc3n(CCCOC(C)C)c(=O)c4ccccc4n23)cc1OC | 0.00665
Cc1ccc(CCNC(=O)Nc2cn(CC(C)C)c(=O)c3ccccc23)cc1 | 5.23
CC(Cc1ccccc1F)N1CCCC(O)C1 (stereo not shown) | -3.5
CCc1ccc(-c2cn3c(n2)sc2cc(C(=O)N4CCCC4)ccc23)cc1 | 4.85

Structure (SMILES) | % Inhibition @ 10 uM [%]
O=C(O)C1CC=CCC1C(=O)Nc1ccc(N2CCN(Cc3ccccc3)CC2)cc1 (stereo not shown) | -1.61
CN1C(=O)C(=Cc2cn(CC#N)c3ccccc23)C(=O)N(C)C1=O | -5.16
Cc1cccc(OCc2nnc(NC(=O)C34CC5CC(CC(C5)C3)C4)s2)c1 | 25.9
O=C(NC1CCCCCC1)C(Cc1ccccc1)NS(=O)(=O)c1cccc2nsnc12 (stereo not shown) | 3.63
CCOC(=O)c1c(NC(=O)CC)sc2c1CCC/C2=N/O | -6.68
COc1ccc(-n2c3c(c(=O)[nH]c2=O)C(NC(=O)c2cccc(Cl)c2)(C(F)(F)F)C(=O)N3)cc1 (stereo not shown) | 1.93
Cc1ccccc1CN1CCN(C2CCCC2)CC1 | 0.131
CCOc1ccc(C(=O)Nc2ccc(NC(=O)c3ccco3)c(OC)c2)cc1Br | -0.511
CNC1Cc2cc(Cl)ccc2Sc2ccccc21 (stereo not shown) | -2.87
CC1(C)CC(=O)c2sc(N3CCCCC3)nc2C1 | 3.65
COc1ccc(/C=c2\sc3nc(-c4ccccc4)nn3c2=O)cc1 | 3.34
Cc1ccc(C(=O)NCC2CCCO2)cc1Br (stereo not shown) | -0.425
Cc1ccc(C)c(S(=O)(=O)NCc2ccc(C(=O)NCc3ccccn3)cc2)c1 | 0.709
CCOC(=O)N1CCc2c(sc(N)c2C(=O)c2ccccc2Cl)C1 | -0.68
COc1ccc(OC)c(NC(=O)c2cccc(Cl)c2)c1 | -5.92
CCOc1ccccc1C(=O)Nc1c(C)cccc1C | -1.07
Cc1ccc2oc(=O)n(CCOc3ccccc3C)c2c1 | -0.366
CCc1cc2c(=O)n(-c3ccc(Cl)c(Cl)c3)c(=O)[nH]c2s1 | -2.51
CCCC(=O)Nc1ccc(Cl)c(NC(=O)c2ccc(OCC)cc2)c1 | 3.69
CCOc1ccc(NC(=O)CSc2nc3cc(C)ccc3cc2C#N)cc1 | 2.51
CN1CCN(C(=O)Cn2nc(-c3ccc(Cl)cc3)c3ccccc3c2=O)CC1 | 2.95
O=C(NCc1ccncc1)c1cccc(COc2ccc3c(c2)CCC3)c1 | 2.1
O=C(O)Cn1ncn2nc(-c3cccs3)cc2c1=O | -1.6
O=C(Nc1cccc(Cl)c1)Nc1ccccc1OC(F)F | -2.77
COc1cccc(C(=O)NCc2ccccc2OC)c1 | -4.43
Cc1ccccc1C1CC(=O)NC(SCc2ccccc2)=C1C#N (stereo not shown) | -1.4

Structure (SMILES) | % Inhibition @ 10 uM [%]
COc1ccccc1C1C2=C(O)CCCC2=NC(C)=C1C(=O)OCC1CCCO1 (stereo not shown) | 4.95
CN1CCC(N(CCO)Cc2ccccc2)CC1 | -3.6
Cc1c(CNCCc2ccc(S(N)(=O)=O)cc2)c(C(=O)O)c(C)n1Cc1ccc(F)cc1 | -11.3
O=C(NCCCCc1ccccc1)c1ccccc1F | -1.48
COc1ccc(OC)c(CCNC(=O)C2CCCN(c3nn4c(=O)cc(C)nc4s3)C2)c1 (stereo not shown) | 0.0882
COc1cc(CN(C(=S)NCC(=O)NCc2ccc(F)cc2)C2CCCC2)cc(OC)c1OC | -0.406
CCc1ccccc1-n1nnc(-c2nsc(NC(=O)c3cccs3)n2)c1C | 0.224
COc1ccccc1CNC(=O)c1ccc(CS(=O)(=O)c2cccc(C(F)(F)F)c2)o1 | -3.09
Cc1cc(C)c(S(=O)(=O)C(C)(C)C)c(C)c1 | 3.31
Cc1cc(NC(=O)CCCOc2ccc(Cl)cc2Cl)no1 | -4.98
Cc1cc(NC(=O)c2nn(C)c3c2CSc2ccccc2-3)no1 | 4.86
CCOc1ccccc1Nc1nc(-c2ccc(Cl)cc2)c(C)s1 | 3.25
COc1cc2c(cc1/C=C1/NC(=O)N(c3cccc(Cl)c3)C1=O)OCO2 | -11.5
O=C(NCC1CCCO1)c1cc2nc(-c3ccco3)cc(C(F)(F)F)n2n1 (stereo not shown) | 16.3
CC(C)CNS(=O)(=O)c1ccc(CCC(=O)Nc2c(F)cccc2F)cc1 | -3.45
COc1ccccc1CNC(=O)Cn1ccc2cc(S(=O)(=O)N3CCCC3)ccc21 | -4.85
CCOc1ccc2c(=O)c(Oc3ccc(OC)cc3)c(C(F)(F)F)oc2c1 | 0.528
O=C1NC(=O)/C(=C\c2ccc3ccccc3c2)S1 | -1.15
CS(=O)(=O)n1nc(-c2ccc(Cl)cc2)nc1SCc1ccccc1 | 0.343
CC(C)Oc1ccc(C2N3CC4(C)CN2CC(c2ccccc2)(C3)C4=O)cc1 (stereo not shown) | -8.78
CCN(CC)CCOC(=O)c1ccc(-n2cccc2)cc1 | -0.403
CNC(=O)CCn1nc(-c2ccc(Cl)cc2)c2ccccc2c1=O | -10.9
Cc1cccc(-n2nc3c(c2NC(=O)c2ccc(Cl)cc2)CS(=O)(=O)C3)c1C | 5.9
COCC(=O)NC1(C(=O)NC2CCCC2)CCCCC1 | 0.512
COc1ccc(N(CC(=O)Nc2ccc(Br)cc2)S(C)(=O)=O)c(OC)c1 | -3.25
